Molecular target: T1, TDP‐43 low‐complexity domain (TDP‐43^LCD), amino acids 267–414 of TDP‐43 (UniProt Q13148 267-414, Cy5 (mono NHS ester) label in TCCD and, at 1% of the protein, in FRAP; unlabelled in the other assays)
T1 construct: source: E. coli BL21(DE3), purified from inclusion bodies (HisTrap in 8 M urea), buffer exchanged into 20 mM MES pH 6.0
Assay: two-color coincidence detection (TCCD), confocal single-molecule fluorescence; fluorescently labelled TDP-43^LCD and labelled sHsp, diluted to 200 nM in 20 mM MES pH 6.0, 25°C, both in solution; peaks found in both channels within 10 ms counted as coincident (hetero-oligomers)
Details: both partners purified

T1 sequence (Q13148 267-414, one chain of several): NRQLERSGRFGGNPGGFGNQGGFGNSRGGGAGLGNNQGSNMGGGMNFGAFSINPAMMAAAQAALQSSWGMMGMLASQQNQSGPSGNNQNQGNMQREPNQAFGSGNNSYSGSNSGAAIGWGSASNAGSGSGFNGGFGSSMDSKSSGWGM

B1: HspB1^ACD (core α‐crystallin domain of HspB1, […]) (domain or fragment)
chain: not shown
modifications: Alexa Fluor 647 (NHS ester) label in TCCD and in the condensate partitioning experiment
notes: Small heat shock protein HspB1 (Hsp27), α-crystallin domain, […]; pET28 vector, gift of A. Laganowsky (Laganowsky et al., 2010); also called core domain of HspB1; source: E. coli BL21(DE3), purified
binding result: binds
